Source: the supplement of paper PMC8728848
Some of the results follow.

Assays:
Assay in all cases: glycan array binding signal (z-score within array); higher = stronger binding
Details in all cases: glycan notation: IUPAC condensed, linker removed
Fuc(a1-2)Gal = target: Fuc(a1-2)Gal
Summary of the method: (§1)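 Glycan array data were curated from 3228 arrays in the Consortium for Functional Glycomics database and kept only where the protein sequence was available. Glycan names were converted to IUPAC-condensed notation, and columns mapping to the same glycan were averaged. The binding signal is a within-array Z-score, averaged across arrays of the same protein sequence at different concentrations or buffers and across linkers. Negative Z-scores can be read as non-binding.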

Fuc(a1-2)Gal(b1-3)GalNAc = target: Fuc(a1-2)Gal(b1-3)GalNAc
Summary of the method: as §1

[1] = target: Fuc(a1-2)Gal(b1-3)GalNAc(a1-3)[Fuc(a1-2)]Gal(b1-4)Glc
Summary of the method: as §1

[2] = target: Fuc(a1-2)Gal(b1-3)GalNAc(a1-3)[Fuc(a1-2)]Gal(b1-4)GlcNAc
Summary of the method: as §1

[3] = target: Fuc(a1-2)Gal(b1-3)GalNAc(b1-3)Gal
Summary of the method: as §1

[4] = target: Fuc(a1-2)Gal(b1-3)GalNAc(b1-3)Gal(a1-4)Gal(b1-4)Glc
Summary of the method: as §1

[5] = target: Fuc(a1-2)Gal(b1-3)GalNAc(b1-4)[Neu5Ac(a2-3)]Gal(b1-4)Glc
Summary of the method: as §1

Fuc(a1-2)Gal(b1-3)GlcNAc = target: Fuc(a1-2)Gal(b1-3)GlcNAc
Summary of the method: as §1

[6] = target: Fuc(a1-2)Gal(b1-3)GlcNAc(b1-2)Man(a1-3)[Fuc(a1-2)Gal(b1-3)GlcNAc(b1-2)Man(a1-6)]Man(b1-4)GlcNAc(b1-4)GlcNAc
Summary of the method: as §1

[7] = target: Fuc(a1-2)Gal(b1-3)GlcNAc(b1-2)Man(a1-3)[Fuc(a1-2)Gal(b1-3)GlcNAc(b1-2)Man(a1-6)]Man(b1-4)GlcNAc(b1-4)[Fuc(a1-6)]GlcNAc
Summary of the method: as §1

[8] = target: Fuc(a1-2)Gal(b1-3)GlcNAc(b1-3)Gal(b1-4)Glc
Summary of the method: as §1

[9] = target: Fuc(a1-2)Gal(b1-3)GlcNAc(b1-3)GalNAc
Summary of the method: as §1

[10] = target: Fuc(a1-2)Gal(b1-3)GlcNAc(b1-3)[Fuc(a1-2)Gal(b1-3)GlcNAc(b1-6)]GalNAc
Summary of the method: as §1

[11] = target: Fuc(a1-2)Gal(b1-3)GlcNAc(b1-3)[Gal(b1-4)GlcNAc(b1-6)]Gal(b1-4)Glc
Summary of the method: as §1

[12] = target: Fuc(a1-2)Gal(b1-3)GlcNAc(b1-3)[Neu5Ac(a2-6)Gal(b1-4)GlcNAc(b1-6)]Gal(b1-4)Glc
Summary of the method: as §1

[13] = target: Fuc(a1-2)Gal(b1-3)GlcNAc6S
Summary of the method: as §1

[14] = target: Fuc(a1-2)Gal(b1-3)[Fuc(a1-4)]GlcNAc
Summary of the method: as §1

[15] = target: Fuc(a1-2)Gal(b1-3)[Fuc(a1-4)]GlcNAc(b1-2)Man(a1-3)[Fuc(a1-2)Gal(b1-3)[Fuc(a1-4)]GlcNAc(b1-2)Man(a1-3)]Man(b1-4)GlcNAc(b1-4)GlcNAc
Summary of the method: as §1

[16] = target: Fuc(a1-2)Gal(b1-3)[Fuc(a1-4)]GlcNAc(b1-2)Man(a1-3)[Fuc(a1-2)Gal(b1-3)[Fuc(a1-4)]GlcNAc(b1-2)Man(a1-6)]Man(b1-4)GlcNAc(b1-4)[Fuc(a1-6)]GlcNAc(b1-4)[Fuc(a1-6)]GlcNAc
Summary of the method: as §1

[17] = target: Fuc(a1-2)Gal(b1-3)[Fuc(a1-4)]GlcNAc(b1-3)[Fuc(a1-3)[Gal(b1-4)]GlcNAc(b1-6)]Gal(b1-4)Glc
Summary of the method: as §1

[18] = target: Fuc(a1-2)Gal(b1-3)[Fuc(a1-4)]GlcNAc(b1-3)[Gal(b1-4)GlcNAc(b1-6)]Gal(b1-4)Glc
Summary of the method: as §1

[19] = target: Fuc(a1-2)Gal(b1-4)Fuc(a1-3)]GlcNAc(b1-2)Man(a1-3)[Fuc(a1-2)Gal(b1-4)[Fuc(a1-3)]GlcNAc(b1-2)Man(a1-6)]Man(b1-4)GlcNAc(b1-4)GlcNAc
Summary of the method: as §1

Fuc(a1-2)Gal(b1-4)Glc = target: Fuc(a1-2)Gal(b1-4)Glc
Summary of the method: as §1

Fuc(a1-2)Gal(b1-4)Glc6S = target: Fuc(a1-2)Gal(b1-4)Glc6S
Summary of the method: as §1

Fuc(a1-2)Gal(b1-4)GlcNAc = target: Fuc(a1-2)Gal(b1-4)GlcNAc
Summary of the method: as §1

[20] = target: Fuc(a1-2)Gal(b1-4)GlcNAc(b1-2)Man
Summary of the method: as §1

[21] = target: Fuc(a1-2)Gal(b1-4)GlcNAc(b1-2)Man(a1-3)[Fuc(a1-2)Gal(b1-4)GlcNAc(b1-2)Man(a1-6)]Man(b1-4)GlcNAc(b1-4)GlcNAc
Summary of the method: as §1

[22] = target: Fuc(a1-2)Gal(b1-4)GlcNAc(b1-2)Man(a1-3)[Fuc(a1-2)Gal(b1-4)GlcNAc(b1-2)Man(a1-6)]Man(b1-4)GlcNAc(b1-4)[Fuc(a1-6)]GlcNAc
Summary of the method: as §1

[23] = target: Fuc(a1-2)Gal(b1-4)GlcNAc(b1-2)[Fuc(a1-2)Gal(b1-4)GlcNAc(b1-4)]Man(a1-3)[Fuc(a1-2)Gal(b1-4)GlcNAc(b1-2)Man(a1-6)]Man(b1-4)GlcNAc(b1-4)GlcNAc
Summary of the method: as §1

[24] = target: Fuc(a1-2)Gal(b1-4)GlcNAc(b1-3)Gal(b1-4)GlcNAc
Summary of the method: as §1

[25] = target: Fuc(a1-2)Gal(b1-4)GlcNAc(b1-3)Gal(b1-4)GlcNAc(b1-2)Man(a1-3)[Fuc(a1-2)Gal(b1-4)GlcNAc(b1-3)Gal(b1-4)GlcNAc(b1-2)Man(a1-6)]Man(b1-4)GlcNAc(b1-4)GlcNAc
Summary of the method: as §1

[26] = target: Fuc(a1-2)Gal(b1-4)GlcNAc(b1-3)Gal(b1-4)GlcNAc(b1-3)Gal(b1-4)GlcNAc
Summary of the method: as §1

[27] = target: Fuc(a1-2)Gal(b1-4)GlcNAc(b1-3)GalNAc
Summary of the method: as §1

[28] = target: Fuc(a1-2)Gal(b1-4)GlcNAc(b1-3)[Fuc(a1-2)Gal(b1-4)GlcNAc(b1-6)]GalNAc
Summary of the method: as §1

[29] = target: Fuc(a1-2)Gal(b1-4)GlcNAc(b1-3)[Fuc(a1-3)[Gal(b1-4)]GlcNAc(b1-6)]Gal(b1-4)Glc
Summary of the method: as §1

[30] = target: Fuc(a1-2)Gal(b1-4)GlcNAc(b1-6)GalNAc
Summary of the method: as §1

[31] = target: Fuc(a1-2)Gal(b1-4)GlcNAc6S
Summary of the method: as §1

B1: Sebin1 (Coprinopsis cinerea), A8PEE3 (protein)
chain: MTSPFYAHIHNVQDDNTWRFTLIFANRATADEWWRAISEAPANTSIAKSITRVTPQYYTHDVNIWNIWNFFADGNIKSISERFRGRLFIVLENDRGGRGITVIPPVPIVDHVSGNWFYIRSKTAPHLFWYYDERRSSIYASKEKRTRFKISIRNPSSQTPKNAIMINTDDVTIHIKENLYVGVDNNLGHIIPTRAYRTFKFGELESGAIAGFDVVENIEERCSSTFDGASLSISGPDSSSPGEPWELV
Question: B1 was tested. Which “glycan array binding signal (z-score)” value (Fuc(a1-2)Gal) did it give?
Answer: The value was -0.454.

Question: What about the “glycan array binding signal (z-score)” value (Fuc(a1-2)Gal(b1-3)GalNAc) of the same binder?
Answer: The value was -0.284.

Question: What about the “glycan array binding signal (z-score)” value [1] of the same binder?
Answer: The value was 0.089.

Question: What about the “glycan array binding signal (z-score)” value [2] of the same binder?
Answer: Its value is -0.438.

Question: And the “glycan array binding signal (z-score)” value [3]?
Answer: The value was -0.313.

Question: What about the “glycan array binding signal (z-score)” value [4] of the same binder?
Answer: The value was 0.198.

Question: What about the “glycan array binding signal (z-score)” value [5] of the same binder?
Answer: The value was -0.103.

Question: And the “glycan array binding signal (z-score)” value (Fuc(a1-2)Gal(b1-3)GlcNAc)?
Answer: The value was -0.406.

Question: What about the “glycan array binding signal (z-score)” value [6] of the same binder?
Answer: Its value is 0.775.

Question: What about the “glycan array binding signal (z-score)” value [7] of the same binder?
Answer: The value was 0.497.

Question: What about the “glycan array binding signal (z-score)” value [8] of the same binder?
Answer: The value was -0.016.

Question: And the “glycan array binding signal (z-score)” value [9]?
Answer: The value was -0.114.

Question: And the “glycan array binding signal (z-score)” value [10]?
Answer: Its value is 0.851.

Question: What about the “glycan array binding signal (z-score)” value [11] of the same binder?
Answer: Its value is 0.569.

Question: And the “glycan array binding signal (z-score)” value [12]?
Answer: The value was -0.147.

Question: And the “glycan array binding signal (z-score)” value [13]?
Answer: Its value is -0.106.

Question: And the “glycan array binding signal (z-score)” value [14]?
Answer: Its value is -0.178.

Question: What about the “glycan array binding signal (z-score)” value [15] of the same binder?
Answer: Its value is -0.126.

Question: And the “glycan array binding signal (z-score)” value [16]?
Answer: Its value is 0.098.

Question: What about the “glycan array binding signal (z-score)” value [17] of the same binder?
Answer: The value was 0.083.

Question: And the “glycan array binding signal (z-score)” value [18]?
Answer: The value was 0.147.

Question: And the “glycan array binding signal (z-score)” value [19]?
Answer: Its value is 1.59.

Question: What about the “glycan array binding signal (z-score)” value (Fuc(a1-2)Gal(b1-4)Glc) of the same binder?
Answer: Its value is -0.509.

Question: What about the “glycan array binding signal (z-score)” value (Fuc(a1-2)Gal(b1-4)Glc6S) of the same binder?
Answer: The value was -0.276.

Question: What about the “glycan array binding signal (z-score)” value (Fuc(a1-2)Gal(b1-4)GlcNAc) of the same binder?
Answer: The value was -0.421.

Question: And the “glycan array binding signal (z-score)” value [20]?
Answer: Its value is 0.046.

Question: What about the “glycan array binding signal (z-score)” value [21] of the same binder?
Answer: Its value is 0.126.

Question: And the “glycan array binding signal (z-score)” value [22]?
Answer: Its value is -0.052.

Question: And the “glycan array binding signal (z-score)” value [23]?
Answer: The value was -0.038.

Question: What about the “glycan array binding signal (z-score)” value [24] of the same binder?
Answer: The value was -0.293.

Question: And the “glycan array binding signal (z-score)” value [25]?
Answer: Its value is -0.103.

Question: What about the “glycan array binding signal (z-score)” value [26] of the same binder?
Answer: Its value is -0.188.

Question: What about the “glycan array binding signal (z-score)” value [27] of the same binder?
Answer: Its value is -0.216.

Question: What about the “glycan array binding signal (z-score)” value [28] of the same binder?
Answer: The value was -0.085.

Question: What about the “glycan array binding signal (z-score)” value [29] of the same binder?
Answer: The value was -0.909.

Question: What about the “glycan array binding signal (z-score)” value [30] of the same binder?
Answer: The value was 4.71.

Question: And the “glycan array binding signal (z-score)” value [31]?
Answer: The value was -0.525.
